Structures are written as SMILES. Among all 310,000 compounds or so, about 14,000 (4.5%) showed an effect of 50% or more. The effect is printed as a negative number. The list shows a part of the results.
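Note: peak tail current of the secondary pulse compared with the same well before compound.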

Chain of human ether-à-go-go-related gene (hERG) potassium channel (Q12809 whole entry, looked up): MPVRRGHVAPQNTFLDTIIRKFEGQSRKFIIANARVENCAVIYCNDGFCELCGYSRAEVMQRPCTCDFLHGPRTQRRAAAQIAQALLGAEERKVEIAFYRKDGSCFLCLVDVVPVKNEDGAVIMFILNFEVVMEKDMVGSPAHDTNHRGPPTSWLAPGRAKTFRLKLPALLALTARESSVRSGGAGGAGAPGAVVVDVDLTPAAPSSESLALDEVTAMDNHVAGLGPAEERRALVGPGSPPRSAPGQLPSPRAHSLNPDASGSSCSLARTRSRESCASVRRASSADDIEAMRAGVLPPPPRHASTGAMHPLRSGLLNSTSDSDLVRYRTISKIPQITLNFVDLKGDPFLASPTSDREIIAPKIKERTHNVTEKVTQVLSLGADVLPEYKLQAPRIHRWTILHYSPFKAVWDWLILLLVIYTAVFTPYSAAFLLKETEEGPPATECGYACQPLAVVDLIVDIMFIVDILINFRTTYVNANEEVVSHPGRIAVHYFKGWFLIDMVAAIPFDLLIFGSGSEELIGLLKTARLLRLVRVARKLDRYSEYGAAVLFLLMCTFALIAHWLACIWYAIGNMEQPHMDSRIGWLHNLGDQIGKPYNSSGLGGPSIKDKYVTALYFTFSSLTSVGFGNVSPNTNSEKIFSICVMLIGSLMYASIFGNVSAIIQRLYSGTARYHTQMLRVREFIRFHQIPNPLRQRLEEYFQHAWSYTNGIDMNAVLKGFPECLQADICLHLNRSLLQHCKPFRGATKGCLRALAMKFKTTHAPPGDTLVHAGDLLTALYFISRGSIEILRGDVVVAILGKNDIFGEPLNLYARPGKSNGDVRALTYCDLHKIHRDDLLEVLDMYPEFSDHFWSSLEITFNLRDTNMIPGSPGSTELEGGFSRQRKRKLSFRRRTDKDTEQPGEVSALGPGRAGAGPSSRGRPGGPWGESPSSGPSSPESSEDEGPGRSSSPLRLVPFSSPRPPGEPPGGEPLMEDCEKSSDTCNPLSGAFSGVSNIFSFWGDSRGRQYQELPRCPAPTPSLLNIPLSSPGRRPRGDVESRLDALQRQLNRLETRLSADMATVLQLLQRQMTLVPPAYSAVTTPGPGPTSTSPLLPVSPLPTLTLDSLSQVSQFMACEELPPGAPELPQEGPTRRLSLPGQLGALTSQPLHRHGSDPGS

The assay concerns the target human ether-à-go-go-related gene (hERG) potassium channel (human, UniProt Q12809). In words: primary screen, population patch clamp on CHO cells stably expressing hERG.
In the case of `Cc1ccc(OCCCC(=O)Nc2ccc(Cl)c(S(=O)(=O)N3CCOCC3)c2)cc1`, the “hERG current change (%, negative = inhibition) at 10uM” value is reported as -14.4%. Next, `COCc1nnc(NC(=O)CCS(=O)(=O)c2ccccc2)s1`: 22.9%; `COCCCNC(=S)NCCc1ccc(F)cc1`: 13.7%.

Regarding `Cc1ccc(CNC(=O)Cc2ccc(Br)cc2)cc1`, the “hERG current change (%, negative = inhibition) at 10uM” value is 20.8%. To `CCCNC(=O)C1CCN(S(=O)(=O)c2ccc3c(c2)OCCO3)CC1` belongs -4.3%.

Regarding `Cc1ccc(S(=O)(=O)CCC(=O)Nc2ccc(Br)cc2)cc1`, the “hERG current change (%, negative = inhibition) at 10uM” value is listed as -7.37%. As for `CCCSc1nnc(-c2cnn(-c3ccccc3)c2-n2cccc2)n1C`, the “hERG current change (%, negative = inhibition) at 10uM” value is -33.7%. Next, `CCC(C)NCCCCOc1ccc(Br)cc1.O=C(O)C(=O)O` (centres unmarked): -32.6%; `Cc1ccc(-n2[nH]c(C)c(C=Nc3ccc(S(=O)(=O)Nc4nccs4)cc3)c2=O)cc1C`: 4.5%; `NC(=S)Nc1cccc(O)c1`: 13.2%. To `C/C(=N\NC(=O)c1cccc2ccccc12)c1cccs1` belongs 6.58%. Next, `COc1cccc(CNC(=O)c2ccc(CS(=O)(=O)Cc3ccccc3C)o2)c1`: -8.18%. `CCc1ccc2c(CN3CCOCC3)cc(=O)oc2c1`: the “hERG current change (%, negative = inhibition) at 10uM” value is -31.7%. Next, `COc1ccccc1-c1cc(C(=O)N2CCCCC2)no1`: -1.75%; `COc1ccc(Oc2nc3c(c(=O)n(C)c(=O)n3C)n2C)cc1`: 17.7%; `C[C@]12C(=O)N(c3ccc(Cl)cc3)C(=O)N1[C@@H]1c3ccccc3OC[C@@H]1[C@H]2c1ccccc1`: 8.19%.

`Cc1oc(/N=C/c2ccc(O)cc2O)c(C#N)c1C`: the “hERG current change (%, negative = inhibition) at 10uM” value is 19.8%. For the compound `COc1ccc(CNC(=O)COC(=O)c2ccc(OCc3c(C)noc3C)cc2)cc1OC`, the “hERG current change (%, negative = inhibition) at 10uM” value was found to be 13.8%. With `CCc1ccc(-c2csc(-c3c[nH]c4ccccc34)n2)cc1`, the “hERG current change (%, negative = inhibition) at 10uM” value is listed as 3.01%.

As to `CCCCOc1ccc(C(=O)NCC(=O)NC2CCC(C)CC2)cc1` (centres unmarked), the “hERG current change (%, negative = inhibition) at 10uM” value was -0.305%. To `Cc1c(Cl)cccc1NC(=O)CSCc1cc(=O)[nH][nH]1` belongs -4.12%; to `COc1ccc(NC(=O)CN(C)C(=O)CSCC(=O)Nc2ccc(C)cc2)cc1`, -0.753%; to `CN(CCc1ccccn1)C(=O)CCC1CCCN(C(=O)c2c3c(nn2C)CCCC3)C1` (centres unmarked), 28.5%. As to `CCN(C(=O)Cn1c(=O)oc2cc(S(=O)(=O)N3CCOCC3)ccc21)c1ccccc1`, the “hERG current change (%, negative = inhibition) at 10uM” value was -5.23%. To `O=C1CN(C(=O)COC(=O)c2cc(S(=O)(=O)N3CCOCC3)ccc2Cl)c2ccccc2N1` belongs -32.6%; to `Cc1ccccc1NC(=O)CSc1nnc(Cc2ccccc2)c(=O)n1N`, 3.16%; to `Cc1c(NC(=O)CSCc2ccccc2)cccc1C(=O)O`, 18%. Next, `COc1ccc(N(C(C)C(=O)N/N=C/c2ccc(OCC(C)C)cc2)S(C)(=O)=O)cc1` (centres unmarked): -9.12%; `CCCCn1c(N)c(N(CC(C)C)C(=O)c2ccc(-c3ccc(Cl)cc3)o2)c(=O)[nH]c1=O`: 1.07%; `CCCCN(C)S(=O)(=O)c1c(C)[nH]c(=O)[nH]c1=O`: 2.53%. For `O=C(NC(=S)Nc1ccccc1[N+](=O)[O-])c1cncc(Br)c1`, the “hERG current change (%, negative = inhibition) at 10uM” value stood at 16.3%. To `O=C(CCC(=O)NNC(=O)c1ccc(Cl)cc1Cl)NCc1ccccc1` belongs -8.65%; to `C#CCNC(=O)C1=C[C@@H](c2ccc(Br)cc2)C[C@@H](OCCCCO)O1`, -18.9%.

With `COC(=O)c1[nH]c2cc(OC)c(OC)cc2c1NC(=O)c1cccc(OC)c1`, the “hERG current change (%, negative = inhibition) at 10uM” value is recorded as -0.275%.

Regarding `COC(=O)Cn1c(CN2CCOCC2)nc2c1c(=O)n(C)c(=O)n2C`, the “hERG current change (%, negative = inhibition) at 10uM” value is on record as 9.63%.

In the case of `Cn1ncc(Cl)c1C(=O)Nc1nnc(C2CC2)s1`, the “hERG current change (%, negative = inhibition) at 10uM” value is recorded as 12%. To `CC(C)(C)c1ccc(C(=O)NNC(=S)NCC2CCCO2)cc1` (centres unmarked) belongs 14.4%; to `O=C(CN1CCOCC1)Nc1nc2ccc(F)cc2s1`, -8.56%; to `O=C(CSc1ccc(Cl)cc1)Nc1cc(-c2nc3ncccc3o2)ccc1Cl`, -7.92%.

On to `CN(Cc1ccccc1)C(=O)COC(=O)/C=C/c1ccco1`, for which the “hERG current change (%, negative = inhibition) at 10uM” value is 10.2%. To `CCOC(=O)c1cc(S(=O)(=O)N2CCN(c3ccccc3OC)CC2)cn1C` belongs -1.22%; to `CCCn1c2c(c(O)c(C(=O)Nc3ccccc3)c1=O)CCCC2`, 16.7%; to `CC(C)CNC(=S)Nc1ccc(S(N)(=O)=O)cc1`, 3.77%.

Regarding `CN(CC(=O)Nc1ccc(F)c(F)c1F)C(=O)CC1CCCCC1`, the “hERG current change (%, negative = inhibition) at 10uM” value is given as -6.8%.

Values taken from PMC4336329 (PLoS ONE, 2015).
